# Results reported in PubChem BioAssay AID485294 (National Center for Advancing Translational Sciences (NCATS), 2010).
# Hit rate of the full screen: of about 370,000 compounds, about 150 (0.041%) were called active. Inconclusive means that the source gave no clear call. Such entries were picked first, then a sample of the others. Calls come from the whole dose curve; as a rule, active = well fitted inhibition curve with a large enough effect; inconclusive = small, poorly fitted or top-dose-only effect; inactive = flat fitted curve, though single readings scatter. Potencies of inconclusive entries are left out as doubtful fits.
# Target: Beta-lactamase (Escherichia coli (strain K12)) (UniProt P00811)
# Assay: qHTS Inhibitors of AmpC Beta-Lactamase (assay with detergent); note: nearly all actives have a fitted effect of over 25% in size;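 for activity change, negative = inhibition: 0% = no-compound wells and -100% = no-enzyme wells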
# Details: AmpC hydrolysis of nitrocefin, absorbance 480 nm, 0.01% Triton; activity change, negative = inhibition: at 114 µM (top of the series)
# Procedure, shortened: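 20 mM phosphate pH 7.0 + 0.01% (detergent screen) or 0.0001% Triton X-100; 5.3 nM AmpC reagent; cpd preinc 15 min RT; nitrocefin (800 uM stock) to start; A480 q20 s × 4 min; Activity was normalised to no-enzyme and no-compound control wells.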
# Potency is the fitted concentration of half-maximal effect; tags give direction and shape of the fitted curve.
# Chain of UniProt P00811 (P00811 whole entry, looked up): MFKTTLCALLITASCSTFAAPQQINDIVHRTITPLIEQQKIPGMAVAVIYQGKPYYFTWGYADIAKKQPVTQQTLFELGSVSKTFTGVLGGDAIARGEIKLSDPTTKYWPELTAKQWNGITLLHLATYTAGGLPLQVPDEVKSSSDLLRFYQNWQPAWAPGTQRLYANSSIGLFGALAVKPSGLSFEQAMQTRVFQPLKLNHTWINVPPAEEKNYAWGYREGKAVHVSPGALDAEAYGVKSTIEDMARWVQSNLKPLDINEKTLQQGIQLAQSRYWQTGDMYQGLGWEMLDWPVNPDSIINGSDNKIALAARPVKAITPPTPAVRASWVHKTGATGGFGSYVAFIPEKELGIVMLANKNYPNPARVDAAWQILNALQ
Structure (SMILES),Potency,"activity change, negative = inhibition"
Cn1c(=O)c2c(nc(Br)n2Cc2ccccc2Cl)n(C)c1=O,"inconclusive [inhibitor, full curve, poor fit]",
COc1ccc(O)c(C(=O)c2cnn(S(=O)(=O)c3ccc(C)cc3)c2)c1,"inconclusive [inhibitor, partial curve]",
NS(=O)(=O)c1cccc(NC(=O)C2CC(=O)N(Cc3ccco3)C2)c1 (configuration not stated),,inactive: -2.2%
CCCOc1ccc(C2C(=O)N(C3CCC(C)CC3)CC(=O)N2Cc2cccc(OC)c2)cc1OC (configuration not stated),,inactive: 9.23%
C=C(C)CNC(=S)N/N=C/c1ccco1,,inactive: 2.02%
CCOC(=O)c1[nH]c2ccccc2c1NC(=S)Nc1cccc(C)c1,"inconclusive [inhibitor, full curve, poor fit]",
Cc1ccc(S(=O)(=O)N2CCC(C(=O)OCC(=O)N3CC(C)CC(C)C3)CC2)cc1C (configuration not stated),"inconclusive [inhibitor, single point]",
CCc1cccc(C)c1NC(=O)Cn1nnc(-c2nc(-c3ccccc3F)no2)c1N,,inactive: 13.3%
CC(=O)N1CCCC1(C(=O)O)c1ccccc1 (configuration not stated),"inconclusive [inhibitor, full curve, poor fit]",
CSc1nc(NS(=O)(=O)c2ccc(F)cc2F)nn1C,"inconclusive [inhibitor, partial curve]",
Cc1cc2c(cc1NS(=O)(=O)c1cccc(C#N)c1)n(C)c(=O)c(=O)n2C,,inactive: 6.65%
COC(=O)c1sccc1NC(=O)CSc1ccc(Cl)cc1,"inconclusive [inhibitor, full curve]",
CCOc1ccc(OCCSc2nc(C)cc(=O)[nH]2)cc1,"inconclusive [inhibitor, single point]",
C/C=C/c1ccc(OCCn2nnc3ccccc32)c(OC)c1,,inactive: -19.1%
Cc1cc(S(=O)(=O)NCCN2CCOCC2)c(C)s1,"inconclusive [inhibitor, full curve, poor fit]",
N#Cc1ccc(C(=O)N/N=C/c2cn(CC(=O)O)c3ccccc23)c(F)c1,"inconclusive [inhibitor, single point]",
CC(C)/C=N/Nc1nc(-c2ccc(Br)cc2)cs1,"inconclusive [inhibitor, partial curve, poor fit]",
CC(=O)/C(=N/Nc1ccc(C)cc1)Sc1nnc(CCc2ccccc2)n1-c1ccccc1,"inconclusive [inhibitor, partial curve, poor fit]",
COc1ccc(C(=O)NC2CCC(O)CC2)cc1S(=O)(=O)NCc1ccc(Cl)cc1 (configuration not stated),"inconclusive [inhibitor, partial curve, poor fit]",
O=C(NCCNc1ccc([N+](=O)[O-])cc1)c1cccc(Br)c1,"inconclusive [inhibitor, partial curve]",
Cc1ccc(OCC(=O)NC2CCCC2)c(C)c1,"inconclusive [inhibitor, full curve]",
Cc1cc(=O)oc2cc(OCC(=O)N3CCN(C(C)c4ccccc4)CC3)c(Cl)cc12 (configuration not stated),,inactive: -4.85%
COc1ccc(C(=O)N[C@H](C(=O)NCc2ccco2)C(C)C)cc1,"inconclusive [inhibitor, full curve, poor fit]",

Structure (SMILES),Potency,"activity change, negative = inhibition"
CCn1cc(C(=O)NCCCOC)c(=O)c2cc(S(=O)(=O)N3CCc4ccccc4C3)ccc21,,inactive: 2.28%
COc1cc(/C=C2/SC(=S)NC2=O)ccc1OS(=O)(=O)c1ccc(C)cc1,,inactive: -1.56%
CN(C)/C=N/c1ncc(C(=O)c2ccc(Cl)cc2)s1,,inactive: 2.08%
COc1cccc(NS(=O)(=O)c2ccc(C)c(C(=O)N3CCCCC3)c2)c1,"inconclusive [inhibitor, full curve, poor fit]",
CCOC(=O)CSc1nc2nc(C)cc(C)n2n1,"inconclusive [inhibitor, full curve]",
COc1ccc(CC(=O)Nc2cccc(C(=O)Nc3ccccc3C(=O)O)c2)cc1OC,"inconclusive [inhibitor, full curve]",
Nc1ccc2c(c1)OC1(CCCC1)O2,,inactive: 4.05%
O=C(COc1ccc(-c2nnc(N3CCCCC3)c3ccccc23)cc1)N1CCCCC1,"inconclusive [inhibitor, single point]",
Cc1ccc(C(=O)CCC(=O)NCc2ccccc2)cc1,,inactive: 0.12%
Cc1cccc(-n2c(CCCN3C(=O)c4ccccc4C3=O)nc3ccccc3c2=O)n1,"inconclusive [inhibitor, full curve]",
CCOc1ccc2nc(NC(=O)Nc3ccccc3)sc2c1,,inactive: -0.226%
CCOc1ccc(C(=O)Nc2ccc3nc(SCC(=O)N4CCc5ccccc54)sc3c2)cc1,,inactive: 2.76%
O=C(Nc1nnc(C(F)(F)F)s1)c1ccc(N2C(=O)C3C4C=CC(C4)C3C2=O)cc1 (configuration not stated),"inconclusive [inhibitor, full curve, poor fit]",
Cc1csc(Sc2ccc([N+](=O)[O-])cc2C(=O)OCC(=O)NC(=O)NC(C)(C)C)n1,"inconclusive [inhibitor, full curve, poor fit]",
COCc1cccc(C2=CC(=O)C[C@H](c3ccc(F)cc3)C2)c1,,inactive: 1.96%
Cc1c(N=C2NC(=O)/C(=C/c3cccc([N+](=O)[O-])c3)S2)c(=O)n(-c2ccccc2)n1C,"inconclusive [inhibitor, full curve, poor fit]",
CC(NCc1ccc2c(c1)OCO2)C(=O)N1CCc2ccccc21 (configuration not stated),"inconclusive [inhibitor, partial curve]",
c1ccc(OCCN2C3=NCCN3c3ccccc32)cc1,"inconclusive [inhibitor, full curve, poor fit]",
N/C(CSc1ccccn1)=N\OCc1c(Cl)cccc1Cl,"inconclusive [inhibitor, full curve, poor fit]",
COc1ccc(CN(C)C(=O)CNC(=O)c2cccs2)c(OC)c1,"inconclusive [inhibitor, full curve, poor fit]",
COc1ccc(-n2nnnc2C2CCN(S(=O)(=O)c3ccc(C)cc3)CC2)cc1,,inactive: 20.3%
COc1ccc(OCCn2c(NC(=O)c3ccco3)nc3ccccc32)cc1,"inconclusive [inhibitor, full curve]",
O=C1Nc2ccccc2C(=O)N2[C@H](c3ccc(F)cc3)[C@@H]3C(=O)N(Cc4ccccc4)C(=O)[C@@H]3[C@H]12,"inconclusive [inhibitor, partial curve, poor fit]",

Structure (SMILES),Potency,"activity change, negative = inhibition"
CC(=O)N1c2ccccc2C(C)(c2ccc(C)cc2)CC1(C)C (configuration not stated),,inactive: 3.12%
COC(=O)[C@@H](C)NC(=O)c1ccc2oc(CCc3ccccc3)nc2c1,"inconclusive [inhibitor, full curve, poor fit]",
O=C1C(Cl)=CC(=Nc2ccc(O)cc2)C=C1Cl,"inconclusive [inhibitor, partial curve]",
Cc1ccc2[nH]c3c(c2c1)CCc1cn[nH]c1-3,"inconclusive [inhibitor, full curve]",
Oc1ccc(C[C@H]2NCCc3cc(O)c(O)cc32)cc1O,,inactive: -0.176%
NC(=O)c1ccnc2c(O)cccc12,"inconclusive [inhibitor, full curve, poor fit]",
COc1ccc(-c2nc3ccccc3n3c(-c4ccccc4)c4c(=O)n(C)c(=O)n(C)c4c23)cc1OC,,inactive: 6.9%
OC1(c2ccc3c(c2)OCO3)CCN(Cc2ccc(F)cc2)CC1,"inconclusive [inhibitor, full curve]",
CCOC(=O)c1nn(-c2ccccc2F)c2nc(-c3ccco3)c(C#N)c(=O)n12,"inconclusive [inhibitor, partial curve]",
CCSc1nnc(Nc2ccc(C)cc2)s1,"inconclusive [inhibitor, partial curve, poor fit]",
CC(=O)COc1c(-c2ccco2)oc2ccccc2c1=O,"inconclusive [inhibitor, partial curve]",
COc1ccc(/C=C2/C(=O)N(CC3CCCO3)C(=S)N2C)c(OC)c1 (configuration not stated),"inconclusive [inhibitor, full curve, poor fit]",
Cc1ccc(Nc2nc(C(=O)N3CCC(C(=O)NC(C)C)CC3)cs2)cc1,"inconclusive [inhibitor, full curve, poor fit]",
CC(C)CC(=O)Nc1ccc(C(=O)COC(=O)CN2C(=O)NC3(CCCCC3C)C2=O)cc1 (configuration not stated),"inconclusive [inhibitor, partial curve]",
CCOC(=O)c1c(C)oc2ccc(OCC(=O)C(C)(C)C)cc12,"inconclusive [inhibitor, full curve, poor fit]",
Fc1ccccc1CSc1ncn[nH]1,"inconclusive [inhibitor, partial curve, poor fit]",
COc1ccccc1NC(=O)c1ccc(-n2cncn2)nc1,"inconclusive [inhibitor, full curve]",
COc1ccc(N2CCN(C(=O)c3oc4ccccc4c3NC(=O)CCc3cc(OC)no3)CC2)cc1,"inconclusive [inhibitor, full curve]",
COc1ccccc1N(C)S(=O)(=O)c1ccc(C(=O)Nc2ccc3nc(C)sc3c2)cc1,"inconclusive [inhibitor, full curve, poor fit]",
Cc1cc(-c2ccccc2)cc(-c2ccccc2)[n+]1C,"inconclusive [inhibitor, partial curve, poor fit]",
O=C(CSc1nc2cc(Cl)ccc2o1)N1CCOCC1,"inconclusive [inhibitor, full curve, poor fit]",
